Assay results published in article PMC5892938.
Some of the results follow. At the low end of the ranking, values are background and their order means little.

target: GST-SBP-SLBP (stem-loop binding protein) (UniProt Q14493); assay: targeted RNA Bind-n-Seq; conditions: RBNS binding buffer: 25 mM Tris pH 7.5, 150 mM KCl, 3 mM MgCl2, 0.1% Tween, 0.5 mg/mL BSA, 1 mM DTT; 27 nM protein, 750 pM RNA pool; temperature not stated; high values mean tight binding;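 note: DESeq read counts versus GST-SBP nonspecific binding control pulldown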

Sequence | binding signal (log2 fold change)
GGUCACGUCUCAAUCAACUCUAUCUCAGGAGUUUACUCCUGCUUAUUCAACAGCUCGCAGUCAAG | 0.12
GGUCACGUCUCAAUCAACUCUUCUCCCAGGGAAAUCCCUGGCAAUUUCAACAGCUCGCAGUCAAG | 0.0159
GGUCACGUCUCAAUCAACUCACACGAGGGGGGGAAAACCCCUUUACCCUCUACAUCAACAGCUCGCAGUCAAG | -0.158
GGUCACGUCUCAAUCAACUCUAUUUCCAGGGAAACCCCUGGUUAACUCAACAGCUCGCAGUCAAG | -0.356
GGUCACGUCUCAAUCAACUCUCAAGAGGGGGGGAAAACCCCUUUGCCCUCAUCUUCAACAGCUCGCAGUCAAG | -0.534
GGUCACGUCUCAAUCAACUCUACUUCCAGGGAAACCCCUGGCUAUCUCAACAGCUCGCAGUCAAG | 0.167
GGUCACGUCUCAAUCAACUCGUCUUCAGGAGUUUUCUCCUGCAUUUUCAACAGCUCGCAGUCAAG | -0.0137
GGUCACGUCUCAAUCAACUCUUUUUCAGGAGUUUCCUCCUGUUAUCUCAACAGCUCGCAGUCAAG | 0.166
GGUCACGUCUCAAUCAACUCAAUUCCCAGGGAAACCCCUGGUUAAUUCAACAGCUCGCAGUCAAG | 0.147
GGUCACGUCUCAAUCAACUCAACUCCAGGAGUUUUCUCCUGUAAACUCAACAGCUCGCAGUCAAG | 0.195
GGUCACGUCUCAAUCAACUCCCCAGAGGGGGGGAAAACCCCUUUACCCUCGUUAUCAACAGCUCGCAGUCAAG | 0.0301
GGUCACGUCUCAAUCAACUCAUUUUCCAGGGAAAGCCCUGGCUUACUCAACAGCUCGCAGUCAAG | -0.0632
GGUCACGUCUCAAUCAACUCAAUCCCCAGGGAAAACCCUGGUUAACUCAACAGCUCGCAGUCAAG | -0.0665
GGUCACGUCUCAAUCAACUCUUUAGAGGGGGGGAAAACCCCUUUACCCUCCGCAUCAACAGCUCGCAGUCAAG | 0.103
GGUCACGUCUCAAUCAACUCAUCCUCAGGAGUUUUCUCCUGUAAAGUCAACAGCUCGCAGUCAAG | 0.126
GGUCACGUCUCAAUCAACUCAUAAGAGGGGGGGAAAACCCCUUUGCCCUCAUUUUCAACAGCUCGCAGUCAAG | -0.0794
GGUCACGUCUCAAUCAACUCUUCCCCCAGGGAAACCCCUGGCAAACUCAACAGCUCGCAGUCAAG | -0.023
GGUCACGUCUCAAUCAACUCAAUCCCAGGAGUUUACUCCUGCUAUUUCAACAGCUCGCAGUCAAG | -0.152
GGUCACGUCUCAAUCAACUCUUUCUCAGGAGUUUUCUCCUGUAAUCUCAACAGCUCGCAGUCAAG | -0.0425
GGUCACGUCUCAAUCAACUCAUCUUCAGGAGUUUACUCCUGUUUACUCAACAGCUCGCAGUCAAG | 0.0798
GGUCACGUCUCAAUCAACUCCCCAGAGGGGGGGAAAACCCCUUUGCCCUCACUUUCAACAGCUCGCAGUCAAG | 0.0765
GGUCACGUCUCAAUCAACUCAUCUUCCAGGGAAACCCCUGGCGUUUUCAACAGCUCGCAGUCAAG | 0.0622
GGUCACGUCUCAAUCAACUCAUCGUCAGGAGUUUCCUCCUGCUAUCUCAACAGCUCGCAGUCAAG | -0.139
GGUCACGUCUCAAUCAACUCAACUUCCAGGGAAAUCCCUGGUAUUCUCAACAGCUCGCAGUCAAG | -0.143
GGUCACGUCUCAAUCAACUCUUCUCCAGGAGUUUUCUCCUGUAAUCUCAACAGCUCGCAGUCAAG | 0.159

Sequence | binding signal (log2 fold change)
GGUCACGUCUCAAUCAACUCCCACGAGGGGGGGAAAACCCCUUUACCCUCUUUCUCAACAGCUCGCAGUCAAG | -0.0395
GGUCACGUCUCAAUCAACUCAUUUUCCAGGGAAACCCCUGGUAAUCUCAACAGCUCGCAGUCAAG | -0.148
GGUCACGUCUCAAUCAACUCUACAGAGGGGGGGAAAACCCCUUUGCCCUCCAUUUCAACAGCUCGCAGUCAAG | -0.00125
GGUCACGUCUCAAUCAACUCCCUAGAGGGGGGGAAAACCCCUUUGCCCUCAUCCUCAACAGCUCGCAGUCAAG | -0.0494
GGUCACGUCUCAAUCAACUCAAUUCCCAGGGAAAGCCCUGGCAUUUUCAACAGCUCGCAGUCAAG | -0.0234
GGUCACGUCUCAAUCAACUCCCAAGAGGGGGGGAAAACCCCUUUACCCUCACUAUCAACAGCUCGCAGUCAAG | -0.0506
GGUCACGUCUCAAUCAACUCUCUCGAGGGGGGGAAAACCCCUUUACCCUCAUCUUCAACAGCUCGCAGUCAAG | 0.251
GGUCACGUCUCAAUCAACUCAUCCCCCAGGGAAAACCCUGGCUUUUUCAACAGCUCGCAGUCAAG | 0.0339
GGUCACGUCUCAAUCAACUCUUCUUCCAGGGAAAACCCUGGCAAACUCAACAGCUCGCAGUCAAG | 0.378
GGUCACGUCUCAAUCAACUCUUCUCCCAGGGAAACCCCUGGUAAUUUCAACAGCUCGCAGUCAAG | -0.208
GGUCACGUCUCAAUCAACUCAUUCUCAGGAGUUUUCUCCUGCAUAGUCAACAGCUCGCAGUCAAG | -0.0797
GGUCACGUCUCAAUCAACUCAUCCUCAGGAGUUUACUCCUGUAAAUUCAACAGCUCGCAGUCAAG | 0.243
GGUCACGUCUCAAUCAACUCUCAAGAGGGGGGGAAAACCCCUUUGCCCUCAUUCUCAACAGCUCGCAGUCAAG | -0.339
GGUCACGUCUCAAUCAACUCUAUCUCCAGGGAAACCCCUGGUUAUCUCAACAGCUCGCAGUCAAG | 0.0397
GGUCACGUCUCAAUCAACUCAUCUUCAGGAGUUUACUCCUGCAUAGUCAACAGCUCGCAGUCAAG | 0.0844
GGUCACGUCUCAAUCAACUCUUUUUCAGGAGUUUUCUCCUGUUAACUCAACAGCUCGCAGUCAAG | -0.0644
GGUCACGUCUCAAUCAACUCUUUAGAGGGGGGGAAAACCCCUUUGCCCUCAUCCUCAACAGCUCGCAGUCAAG | 0.00885
GGUCACGUCUCAAUCAACUCAAAAGAGGGGGGGAAAACCCCUUUGCCCUCAAUAUCAACAGCUCGCAGUCAAG | -0.146
GGUCACGUCUCAAUCAACUCAAUCCCCAGGGAAACCCCUGGCUAUUUCAACAGCUCGCAGUCAAG | -0.0628
GGUCACGUCUCAAUCAACUCAACGCCAGGAGUUUCCUCCUGUAAAUUCAACAGCUCGCAGUCAAG | -0.0571
GGUCACGUCUCAAUCAACUCAACUUCAGGAGUUUACUCCUGCUAUUUCAACAGCUCGCAGUCAAG | 0.102
GGUCACGUCUCAAUCAACUCUCUAGAGGGGGGGAAAACCCCUUUGCCCUCAUACUCAACAGCUCGCAGUCAAG | -0.291
GGUCACGUCUCAAUCAACUCAUUCUCAGGAGUUUGCUCCUGCAUUCUCAACAGCUCGCAGUCAAG | 0.274
GGUCACGUCUCAAUCAACUCAUCUUCAGGAGUUUGCUCCUGCUUUCUCAACAGCUCGCAGUCAAG | -0.0368
GGUCACGUCUCAAUCAACUCUUCUCCCAGGGAAAUCCCUGGCUAACUCAACAGCUCGCAGUCAAG | -0.0845

Sequence | binding signal (log2 fold change)
GGUCACGUCUCAAUCAACUCAACGCCAGGAGUUUACUCCUGUUAUCUCAACAGCUCGCAGUCAAG | -0.487
GGUCACGUCUCAAUCAACUCAUCUUCCAGGGAAAGCCCUGGUUUUUUCAACAGCUCGCAGUCAAG | -0.00937
GGUCACGUCUCAAUCAACUCAGUUUCAGGAGUUUACUCCUGUUUUCUCAACAGCUCGCAGUCAAG | 0.179
GGUCACGUCUCAAUCAACUCUUUCUCAGGAGUUUCCUCCUGUAUUUUCAACAGCUCGCAGUCAAG | 0.0536
GGUCACGUCUCAAUCAACUCUAUUCCAGGAGUUUACUCCUGUUUUUUCAACAGCUCGCAGUCAAG | -0.153
GGUCACGUCUCAAUCAACUCUAUUCCAGGAGUUUUCUCCUGCUUACUCAACAGCUCGCAGUCAAG | -0.0707
GGUCACGUCUCAAUCAACUCAUUCCCAGGAGUUUUCUCCUGUUAUUUCAACAGCUCGCAGUCAAG | 0.0672
GGUCACGUCUCAAUCAACUCAUUCUCAGGAGUUUGCUCCUGUAUACUCAACAGCUCGCAGUCAAG | 0.0223
GGUCACGUCUCAAUCAACUCAUUUUCCAGGGAAAUCCCUGGCUAACUCAACAGCUCGCAGUCAAG | 0.233
GGUCACGUCUCAAUCAACUCUAUCGCAGGAGUUUACUCCUGGUUAUUCAACAGCUCGCAGUCAAG | -0.0705
GGUCACGUCUCAAUCAACUCAAUUUCAGGAGUUUGCUCCUGCUAUGUCAACAGCUCGCAGUCAAG | 0.0989
GGUCACGUCUCAAUCAACUCUACUCCCAGGGAAAUCCCUGGUAAACUCAACAGCUCGCAGUCAAG | -0.116
GGUCACGUCUCAAUCAACUCAAUCUCCAGGGAAACCCCUGGCAAUCUCAACAGCUCGCAGUCAAG | -0.0323
GGUCACGUCUCAAUCAACUCUAUUCCAGGAGUUUACUCCUGUAUUCUCAACAGCUCGCAGUCAAG | 0.0327
GGUCACGUCUCAAUCAACUCCCACGAGGGGGGGAAAACCCCUUUACCCUCUUCUUCAACAGCUCGCAGUCAAG | -0.0408
GGUCACGUCUCAAUCAACUCUUCCUCCAGGGAAACCCCUGGUAAUGUCAACAGCUCGCAGUCAAG | -0.295
GGUCACGUCUCAAUCAACUCAACUUCAGGAGUUUUCUCCUGUAAAUUCAACAGCUCGCAGUCAAG | 0.036
GGUCACGUCUCAAUCAACUCAUCUCCAGGAGUUUGCUCCUGCUUUUUCAACAGCUCGCAGUCAAG | -0.142
GGUCACGUCUCAAUCAACUCCUCAGAGGGGGGGAAAACCCCUUUACCCUCACUAUCAACAGCUCGCAGUCAAG | -0.225
GGUCACGUCUCAAUCAACUCAGUCUCAGGAGUUUCCUCCUGUAAAUUCAACAGCUCGCAGUCAAG | 0.0373
GGUCACGUCUCAAUCAACUCUUUCUCCAGGGAAAUCCCUGGUAUAUUCAACAGCUCGCAGUCAAG | -0.0357
GGUCACGUCUCAAUCAACUCAUUUUCAGGAGUUUACUCCUGCAUAUUCAACAGCUCGCAGUCAAG | -0.0347
GGUCACGUCUCAAUCAACUCAUUUUCAGGAGUUUCCUCCUGCUUUCUCAACAGCUCGCAGUCAAG | 0.0829
GGUCACGUCUCAAUCAACUCUAUCCCAGGAGUUUUCUCCUGUAUACUCAACAGCUCGCAGUCAAG | 0.273
